Assay [1] has as its system KC-0122:BaF3 EGFR-L858R/T790M/C797S. The assay is described as follows: cells. The conditions noted are these: KC-0122, 72 h, read-out: cell proliferation inhibition IC50 (μM) KC-0122, 72 h, CCK-8.
The subject of assay [2] is KC-0116:BaF3 EGFR-Del19/T790M/C797S. Kind of assay: cells. As to conditions: KC-0116, 72 h, read-out: cell proliferation inhibition IC50 (μM) KC-0116, 72 h, CCK-8.

Read-outs that look alike come from different tables or passages of the source.

Experimental findings from patent US20250122202A1, “EGFR INHIBITOR, PREPARATION METHOD THEREFOR AND USE THEREOF” (SHANDONG NEW TIME PHARMACEUTICAL CO., LTD., priority 2021, published 2025) are described below.

Turning to `CN1CCN(c2ccc(Nc3nc(NC4CCOCC4)c4c(C(=O)c5ccc(F)cc5)c[nH]c4n3)cc2)CC1` [Example 40], the IC50 in assay [1] is less than 0.1 µM; in assay [1] (Table 5 numeric), 0.051 µM; in assay [2], less than 0.1 µM; in assay [2] (Table 5 numeric), 0.06 µM.
Regarding `CN1CCN(c2ccc(Nc3nc(N[C@H]4CC[C@H](N)CC4)c4c(C(=O)c5ccc(F)cc5)c[nH]c4n3)cc2)CC1` [Example 90], the IC50 in assay [2] lay in the range of 0.1 to 1 µM.
`CCN1CCN(c2ccc(Nc3nc(N[C@H]4CC[C@@H](CO)CC4)c4c(C(=O)c5ccc(F)cc5)c[nH]c4n3)cc2)CC1` [Example 104]: the IC50 in assay [1] and in assay [2] was less than 0.1 µM in each case.
`C=CC(=O)N1CCC[C@H](Nc2nc(Nc3ccc(N4CCN(C)CC4)cc3)nc3[nH]cc(C(=O)c4ccc(F)cc4)c23)C1` [Example 25]: the IC50 in assay [1] and in assay [2] was 0.1 to 1 µM each time.
On to `CN1CCN(c2ccc(Nc3nc(NCCC4CCOCC4)c4c(C(=O)c5ccc(F)cc5)c[nH]c4n3)cc2)CC1` [Example 72], for which the IC50 in assay [1] and in assay [2] was 0.1 to 1 µM throughout.
As to `CN1CCN(c2ccc(Nc3nc(NC4CCCOC4)c4c(C(=O)c5ccc(F)cc5)c[nH]c4n3)cc2)CC1` (stereo not drawn) [Example 74], the IC50 in assay [1] and in assay [2] was 0.1 to 1 µM throughout.
For the compound `O=C(c1ccc(F)cc1)c1c[nH]c2nc(Nc3ccc(N4CCOCC4)cc3)nc(N[C@H]3CC[C@H](CO)CC3)c12` [Example 79], the IC50 in assay [1] and in assay [2] was less than 0.1 µM each time.
Regarding `CN1CCN(c2ccc(Nc3nc(N[C@H]4CCN(S(=O)(=O)C5CC5)C4)c4c(C(=O)c5ccc(F)cc5F)c[nH]c4n3)cc2)CC1` [Example 48], the IC50 in assay [1] and in assay [2] was 0.1 to 1 µM each time.
Regarding `CN1CCN(c2ccc(Nc3nc(NN4CCCCC4)c4c(C(=O)c5ccc(F)cc5)c[nH]c4n3)cc2)CC1` [Example 39], the IC50 in assay [2] was 0.1 to 1 µM.
As for `CN1CCN(c2ccc(Nc3nc(NC4CCN(C(=O)CC(C)(C)C)CC4)c4c(C(=O)c5ccc(F)cc5)c[nH]c4n3)cc2)CC1` [Example 66], the IC50 in assay [1] and in assay [2] was 0.1 to 1 µM each time.
In the case of `CCN(CC)CCNc1nc(Nc2ccc(N3CCN(C)CC3)cc2)nc2[nH]cc(C(=O)c3ccc(F)cc3)c12` [Example 12], the IC50 in assay [1] and in assay [2] was 0.1 to 1 µM throughout.
For the compound `C=CC(=O)N1CC[C@@H](Nc2nc(Nc3cnn(C)c3)nc3[nH]cc(C(=O)c4ccc(F)cc4)c23)C1` [Example 109], the IC50 in assay [1] and in assay [2] was 1 to 2 µM throughout.
For `C=CC(=O)N1CCC[C@@H](Nc2nc(Nc3ccc(N4CCN(C)CC4)cc3)nc3[nH]cc(C(=O)c4ccc(F)cc4)c23)C1` [Example 24], the IC50 in assay [1] and in assay [2] was 0.1 to 1 µM in each case.
Regarding `CN1CCN(c2ccc(Nc3nc(NC45CC6CC(C4)C(O)C(C6)C5)c4c(C(=O)c5ccc(F)cc5)c[nH]c4n3)cc2)CC1` (stereo not drawn) [Example 71], the IC50 in assay [1] is 0.1 to 1 µM; in assay [2] it was less than 0.1 µM.
The like results for `CN1CCN(c2ccc(Nc3nc(N[C@H]4CC[C@H](CO)CC4)c4c(C(=O)c5ccc(F)cc5)c[nH]c4n3)cc2F)CC1` [Example 78] were, in that order, less than 0.1 µM and 0.1 to 1 µM.
On to `CN1CCN(c2ccc(Nc3nc(NC4CCN(C(=O)C(C)(C)C)CC4)c4c(C(=O)c5ccc(F)cc5)c[nH]c4n3)cc2)CC1` [Example 65], for which the IC50 in assay [1] and in assay [2] was 0.1 to 1 µM throughout.
For the compound `O=C(c1cc(F)cc(F)c1)c1c[nH]c2nc(Nc3ccc(N4CCOCC4)cc3)nc(N[C@H]3CC[C@H](CO)CC3)c12` [Example 101], the IC50 is less than 0.1 µM in assay [1], 0.04 µM in assay [1] (Table 5 numeric), less than 0.1 µM in assay [2] and 0.043 µM in assay [2] (Table 5 numeric).
Regarding `CN1CCN(c2ccc(Nc3nc(Nc4ccc(CO)nc4)c4c(C(=O)c5ccc(F)cc5)c[nH]c4n3)cc2)CC1` [Example 16], the IC50 in assay [2] lay within 0.1 to 1 µM.
For the compound `CN1CCN(c2ccc(Nc3nc(NN4CCOCC4)c4c(C(=O)c5ccc(F)cc5)c[nH]c4n3)cc2)CC1` [Example 38], the IC50 in assay [2] was 0.1 to 1 µM.
On to `CN(C)CCOc1ccc(Nc2nc(N[C@H]3CC[C@@H](CO)CC3)c3c(C(=O)c4ccc(F)cc4)c[nH]c3n2)cc1` [Example 107], for which the IC50 in assay [1] and in assay [2] was 0.1 to 1 µM each time.
For `CN1CCN(c2ccc(Nc3nc(N[C@@H]4CCN(S(=O)(=O)C5CC5)C4)c4c(C(=O)c5ccc(F)cc5)c[nH]c4n3)cc2)CC1` [Example 22], the IC50 in assay [1] was in the range of 1 to 2 µM; in assay [2], 0.1 to 1 µM.
Regarding `COc1cc(N2CCN(C)CC2)ccc1Nc1nc(N[C@H]2CC[C@@H](CO)CC2)c2c(C(=O)c3ccc(F)cc3)c[nH]c2n1` [Example 106], the IC50 in assay [1] is less than 0.1 µM; in assay [2], 0.1 to 1 µM.
`CN1CCN(c2ccc(Nc3nc(N[C@H]4CCN(S(=O)(=O)C5CC5)C4)c4c(C(=O)c5ccccc5)c[nH]c4n3)cc2)CC1` [Example 32]: the IC50 in assay [2] was in the range of 0.1 to 1 µM.
Same read-out and setting: the value for `CN1CCC(Nc2nc(Nc3ccc(N4CCOCC4)cc3)nc3[nH]cc(C(=O)c4ccc(F)cc4)c23)CC1` [Example 100] was less than 0.1 µM.
As to `CN1CCN(c2ccc(Nc3nc(NC4COC4)c4c(C(=O)c5ccc(F)cc5)c[nH]c4n3)cc2)CC1` [Example 69], the IC50 in assay [1] and in assay [2] was 0.1 to 1 µM throughout.
For the compound `CN1CCN(c2ccc(Nc3nc(N[C@H]4CC[C@H](CO)CC4)c4c(C(=O)c5ccc(F)cc5)c[nH]c4n3)cc2)CC1` [Example 42], the IC50 in assay [1] and in assay [2] was less than 0.1 µM in each case.
In the case of `Cc1ccc(C(=O)c2c[nH]c3nc(Nc4ccc(N5CCOCC5)cc4)nc(N[C@H]4CC[C@H](CO)CC4)c23)cc1` [Example 97], the IC50 in assay [1] and in assay [2] was less than 0.1 µM each time.
Take `C=CC(=O)N1CCC(Nc2nc(Nc3ccc(N4CCN(C)CC4)cc3)nc3[nH]cc(C(=O)c4ccc(F)cc4)c23)CC1` [Example 62]: the IC50 in assay [1] and in assay [2] was 0.1 to 1 µM in each case.
Take `CC(C)N1CCC(Nc2nc(Nc3ccc(N4CCOCC4)cc3)nc3[nH]cc(C(=O)c4ccc(F)cc4)c23)CC1` [Example 99]: the values for the IC50 in assay [2] and in assay [2] (Table 5 numeric) were less than 0.1 µM and 0.076 µM, respectively.
As for `CN1CCN(c2ccc(Nc3nc(N[C@H]4CCN(S(=O)(=O)C5CC5)C4)c4c(C(=O)c5ccccc5F)c[nH]c4n3)cc2)CC1` [Example 45], the IC50 in assay [1] and in assay [2] was 0.1 to 1 µM each time.
For the compound `C=CC(=O)N1CC[C@@H](Nc2nc(Nc3ccc(N4CCN(C)CC4)cc3)nc3[nH]cc(C(=O)c4ccc(F)cc4)c23)C1` [Example 26], the IC50 in assay [1] (Table 5 numeric) worked out at 0.68 µM; in assay [2] (Table 5 numeric), 0.17 µM.
For the compound `C=CC(=O)Nc1cccc(Oc2nc(Nc3ccc(N4CCN(C)CC4)c(F)c3)nc3[nH]ccc23)c1` [Avitinib, reference compound], the IC50 is 1 to 2 µM in assay [1], 1.5 µM in assay [1] (Table 5 numeric), 0.1 to 1 µM in assay [2] and 0.97 µM in assay [2] (Table 5 numeric).
As to `CN1CCN(c2ccc(Nc3nc(N[C@H]4CCN(S(=O)(=O)C5CC5)C4)c4c(C(=O)c5ccc(F)cc5)c[nH]c4n3)cc2)CC1` [Example 23], the IC50 in assay [1] and in assay [2] was 0.1 to 1 µM each time.
As to `CN1CCN(c2ccc(Nc3nc(NC4(CO)CC4)c4c(C(=O)c5ccc(F)cc5)c[nH]c4n3)cc2)CC1` [Example 10], the IC50 in assay [1] and in assay [2] was 0.1 to 1 µM each time.
In the case of `CN1CCN(c2ccc(Nc3nc(N[C@H]4CCN(S(=O)(=O)C5CC5)C4)c4c(C(=O)c5cccc(F)c5)c[nH]c4n3)cc2)CC1` [Example 34], the IC50 in assay [2] is 0.1 to 1 µM.
For `COc1cc(N2CCOCC2)ccc1Nc1nc(N[C@H]2CC[C@H](CO)CC2)c2c(C(=O)c3ccc(F)cc3)c[nH]c2n1` [Example 81], the IC50 in assay [2] was less than 0.1 µM; in assay [2] (Table 5 numeric), 0.077 µM.
Take `O=C(c1ccc(F)cc1Cl)c1c[nH]c2nc(Nc3ccc(N4CCOCC4)cc3)nc(N[C@H]3CC[C@H](CO)CC3)c12` [Example 105]: the IC50 is less than 0.1 µM in assay [2] and 0.085 µM in assay [2] (Table 5 numeric).
Turning to `O=C(c1ccc(F)cc1)c1c[nH]c2nc(Nc3ccc(N4CCOCC4)c(F)c3)nc(N[C@H]3CC[C@H](CO)CC3)c12` [Example 82], the IC50 in assay [2] was less than 0.1 µM.
As for `COc1nn(C2CCN(C)CC2)cc1Nc1nc(N[C@H]2CC[C@H](CO)CC2)c2c(C(=O)c3ccc(F)cc3)c[nH]c2n1` [Example 113], the IC50 in assay [2] lay within 0.1 to 1 µM.
Consider `CN1CCN(c2ccc(Nc3nc(N[C@H]4CCCN(S(=O)(=O)C5CC5)C4)c4c(C(=O)c5ccc(F)cc5)c[nH]c4n3)cc2F)CC1` [Example 28], for which the IC50 in assay [1] is 1 to 2 µM.
`COc1cc(N2CCN(C)CC2)ccc1Nc1nc(N[C@H]2CC[C@H](CO)CC2)c2c(C(=O)c3ccc(F)cc3)c[nH]c2n1` [Example 80]: the IC50 in assay [2] was less than 0.1 µM.
On to `CN1CCC(n2cc(Nc3nc(N[C@H]4CC[C@H](CO)CC4)c4c(C(=O)c5ccc(F)cc5)c[nH]c4n3)cn2)CC1` [Example 111], for which, in assay [2], the IC50 was 0.1 to 1 µM.
Regarding `C=CC(=O)N1CC[C@H](Nc2nc(Nc3ccc(N4CCN(C)CC4)cc3)nc3[nH]cc(C(=O)c4cccc(F)c4)c23)C1` [Example 35], the IC50 in assay [2] fell in the range of 0.1 to 1 µM.
On the same count and under the same terms, the value for `CN1CCN(c2ccc(Nc3nc(N[C@H]4CCN(S(=O)(=O)C5CC5)C4)c4c(C(=O)c5ccc(F)c(F)c5)c[nH]c4n3)cc2)CC1` [Example 36] was 0.1 to 1 µM.
Turning to `O=C(c1ccc(F)cc1)c1c[nH]c2nc(Nc3ccc(N4CCOCC4)cc3)nc(N[C@H]3CCN(S(=O)(=O)C4CC4)C3)c12` [Example 31], in assay [1], the IC50 lay within 0.1 to 1 µM.
Take `C=CC(=O)N1CC[C@H](Nc2nc(Nc3ccc(N4CCN(C)CC4)cc3)nc3[nH]cc(C(=O)c4ccccc4)c23)C1` [Example 33]: in assay [2], the IC50 fell in the range of 0.1 to 1 µM.
As for `CN1CCN(c2ccc(Nc3nc(Nc4cccc(CO)c4)c4c(C(=O)c5ccc(F)cc5)c[nH]c4n3)cc2)CC1` [Example 15], the IC50 in assay [2] lay in the range of 0.1 to 1 µM.
The same measure, in the same setting: then `CC(=O)N1CC[C@H](Nc2nc(Nc3ccc(N4CCN(C)CC4)cc3)nc3[nH]cc(C(=O)c4ccc(F)cc4)c23)C1` [Example 54], with 0.1 to 1 µM.
